This note sets out measurements from PubChem BioAssay AID1346428 (National Center for Advancing Translational Sciences (NCATS), 2018).

In all, about 48,000 compounds went through this assay and about 1,200 (2.5%) were called active. About 2% were inconclusive and are not listed.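 The calls were made as follows: active = activation of at least 60% and not above a set upper limit (about 1 call in 100 departs from these limits); inconclusive = activation of 40% to 60%, or above that upper limit; inactive = activation under 40%.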 The list shows a part of the results.

In the experiment the target is Probable G-protein coupled receptor 32 (Homo sapiens) (UniProt O75388). As to the kind of experiment: qHTS for Agonists of Human Resolvin D1 Receptor DRV1. The settings on record: CHO-K1 GPR32 beta-arrestin PathHunter luminescence, 90 min; at 76.9 µM; active compounds read high; zero percent set by DMSO-only wells. In outline: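 PathHunter enzyme-fragment complementation, CHO-K1 GPR32 stable line; 2,500 cells/well, overnight attach; cpd 90 min 37 °C 5% CO2; detection reagent 1 h RT; chemiluminescence. DMSO = EC0.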
Sequence of UniProt O75388 (O75388 whole entry, looked up, the tested form may be a part): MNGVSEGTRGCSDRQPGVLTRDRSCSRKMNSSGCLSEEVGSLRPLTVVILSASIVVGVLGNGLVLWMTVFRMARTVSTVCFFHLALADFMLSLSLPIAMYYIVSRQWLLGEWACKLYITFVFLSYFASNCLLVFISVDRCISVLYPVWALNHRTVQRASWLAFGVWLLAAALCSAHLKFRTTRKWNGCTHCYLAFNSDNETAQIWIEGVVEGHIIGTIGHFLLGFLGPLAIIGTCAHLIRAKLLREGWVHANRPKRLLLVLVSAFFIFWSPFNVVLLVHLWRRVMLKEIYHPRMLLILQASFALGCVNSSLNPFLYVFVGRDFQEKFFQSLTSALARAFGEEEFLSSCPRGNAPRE
Background: In qHTS, concentration-response curves come from the screen itself.
Consider `Cc1nc2c(-c3ccccc3)c(C)nn2c(C)c1CCC(=O)NCc1ccc(Cl)cc1`, for which the activation was inactive: -8.01%.

For `COc1ccc(CCNS(=O)(=O)c2ccc(N3CCCCS3(=O)=O)cc2)cc1OC`, the activation was inactive: 17.3%.

With `CCOC(=O)c1ccc(NC(=O)c2nc(SC(C)C)ncc2Cl)cc1`, the activation was inactive: -5.39%.

For `CCOC(=O)c1nnn(CC(=O)Nc2cc(C)cc(C)c2)c1C(=O)OCC`, the activation is inactive: -7.28%.

Turning to `COc1ccccc1CNC(=O)c1cc2cccc3c2n1CC(C)S3` (centres undefined), the activation was inactive: -27%.

For `CS(=O)(=O)N(CC(=O)NCCSCc1ccccc1)c1cc(C(F)(F)F)ccc1Cl`, the activation is inactive: -9.36%.

On to `O=C(Cn1cnc2onc(-c3ccc(F)cc3)c2c1=O)Nc1cccc(C(F)(F)F)c1`, for which the activation was inactive: 44.7%.

For the molecule `COc1ccc(NC(=O)CC2C(=O)N(c3ccccc3)C(=O)N2C2CCCCC2)cc1` (centres undefined), the activation is inactive: -10.7%.

Consider `Cc1ccc(C)c(Cn2cnc3c(cnn3-c3ccc(F)cc3)c2=O)c1`, for which the activation was inactive: -14.3%.

`CCN(Cc1ccccc1)S(=O)(=O)c1ccc2c(c1)CCCN2C(C)=O`: the activation was inactive: 40.7%.

Regarding `CCc1ccc(NC(=O)N2c3ccccc3Sc3ccccc32)cc1`, the activation was inactive: -17.3%.

For the molecule `COc1ccc(/C(C)=C/C(=O)O)c(OC)c1`, the activation is inactive: -6.13%.

Consider `Cc1cc(-c2ccccc2)n2nc(-c3cccc(Br)c3)cc2n1`, for which the activation is inactive: -8.13%.

On to `CC1CCN(C(=O)CN2c3ccc(C(C)C)cc3-c3ccccc3S2(=O)=O)CC1`, for which the activation was inactive: -16.6%.

For the molecule `Cn1nc(C(=O)NCc2ccc(F)cc2)c2c1-c1ccccc1SC2`, the activation is inactive: -14.3%.

Regarding `Cc1ccc(-c2c(C(=O)NCc3ccc(F)cc3)oc(=O)c3ccccc23)cc1`, the activation was inactive: 21.6%.

Turning to `CC(C)CN(CCNC(=O)c1cn(C)c2ccc(S(=O)(=O)N3CCOCC3)cc2c1=O)CC(C)C`, the activation was inactive: 1.02%.

`CC(=O)c1cccc(NC(=O)c2oc(=O)c3ccccc3c2-c2ccccc2)c1`: the activation was inactive: 9.2%.

On to `Cc1ccccc1NC(=O)Cn1c(=O)n(Cc2ccc3c(c2)OCO3)c(=O)c2ccc(C(=O)NC3CCCCC3)cc21`, for which the activation was inactive: -14.9%.

For `COc1ccc(CCCc2nnc(SCC(=O)Nc3ccc(F)cc3)o2)cc1C`, the activation was inactive: 5.33%.

Regarding `Cc1ccc2cccc(NC(=O)c3ccc(-c4cccc(Cl)c4Cl)o3)c2n1`, the activation is inactive: -1.92%.

As for `CSCCC(NS(=O)(=O)c1ccc2c(c1)oc(=O)n2C)C(=O)NCc1ccccc1` (centres undefined), the activation is inactive: 13.3%.

On to `COc1ccc(/C=C/c2nc(C#N)c(N3CCCCCC3)o2)cc1OC`, for which the activation was inactive: -22%.

For `O=C(Cn1cc(S(=O)(=O)c2ccc(Cl)cc2)c(=O)c2ccccc21)Nc1ccc2c(c1)OCO2`, the activation was inactive: -0.847%.

As to `Cc1ccc(C)c(NC(=O)CSc2ncc3c(n2)-c2ccccc2N(Cc2ccccc2C)S3(=O)=O)c1`, the activation is inactive: -17.7%.

On to `Fc1ccc([C@@H]2Nc3ccccc3[C@@H]3C=CC[C@@H]32)cc1`, for which the activation is inactive: -11.1%.

Regarding `COc1ccc(C)cc1NS(=O)(=O)c1ccc(-c2cnc(C3CC3)o2)cc1`, the activation is inactive: 0%.

For `Cc1ccc(C)c(Nc2ncnc3c2cnn3-c2ccc(F)cc2)c1`, the activation is inactive: 44.7%.

Turning to `Cc1ccc(C)c(S(=O)(=O)Nc2ccc3c(c2)CCCN3C(=O)c2cccs2)c1`, the activation is inactive: -11.1%.

Consider `COc1ccc(CNS(=O)(=O)c2ccc3c(c2)NC(=O)C(C)C(=O)N3)cc1` (centres undefined), for which the activation was inactive: -10.4%.

Consider `Cc1nnc(N2CCC(C(=O)N3CCCCC3)CC2)c2nn(-c3ccccc3)c(C)c12`, for which the activation was inactive: -3.18%.

Regarding `COc1cc(NC(=O)Cn2c(=O)n(Cc3ccccc3Cl)c(=O)c3cc(OC)c(OC)cc32)cc(OC)c1`, the activation is inactive: 4.47%.

As to `O=C(NCCc1ccccc1)c1cc(-c2cccc(Cl)c2)on1`, the activation is inactive: 8.5%.

For `CCc1ccc(Nc2ncnc3sc4c(c23)CCCC4)cc1`, the activation was inactive: -1.69%.

On to `COc1ccc(CNc2n[nH]c(-c3ccco3)n2)cc1OC`, for which the activation was inactive: -0.448%.

In the case of `COc1ccc(CCN2C(=O)N(c3ccc(F)cc3)C(=O)C2CC(=O)Nc2ccccc2)cc1OC` (centres undefined), the activation was inactive: 10.7%.

In the case of `CCCc1c(C(=O)OCC)nnc2c(-c3ccccc3)c(C)nn12`, the activation is inactive: -6.44%.

Turning to `CCCN(C(=O)c1cc2c(=O)n(CC)c3ccccc3c2s1)c1ccccc1F`, the activation was inactive: 15.8%.

On to `COc1cc(NC(=O)c2cc3nc(-c4ccc(C)cc4)cc(C(F)(F)F)n3n2)cc(OC)c1OC`, for which the activation was inactive: -0.0645%.

With `O=C(c1ccc(Nc2nc3ccccc3n3nnnc23)cc1)N1CCN(c2ccc(F)cc2)CC1`, the activation is inactive: -11.8%.

With `COc1ccc(C2c3c(n(C)c4ccccc34)C(=O)N2CC(=O)Nc2ccccc2Cl)cc1` (centres undefined), the activation was inactive: -22.2%.

With `CCc1ccc(NC(=O)c2cc(S(=O)(=O)N3CCCCC3)c[nH]2)cc1`, the activation was inactive: 16.2%.

As for `COc1ccc(CCNC(=O)c2cnc3sc(N4CCOCC4)nn3c2=O)cc1OC`, the activation was inactive: 14%.

For the molecule `O=S(=O)(Nc1ccc(F)cc1F)c1ccc(Br)s1`, the activation was inactive: 25.1%.

Consider `Cc1ccc(CNC(=O)c2nnn(Cc3ccc(F)cc3)c2N)cc1`, for which the activation is inactive: -11.8%.

For the molecule `COc1ccc(OCc2ccc(-c3nc(C#N)c(N4CCC(C(N)=O)CC4)o3)o2)cc1`, the activation was inactive: -6.31%.

Regarding `CC(=O)c1cccc(NC(=O)Cn2c(=O)oc3cc(S(=O)(=O)NCc4ccccc4)ccc32)c1`, the activation was inactive: -3.24%.

In the case of `CCn1c2c(c(=O)n3ncc(C(=O)Nc4ccc(OC(F)(F)F)cc4)c13)CN(Cc1ccc(OC)cc1)CC2`, the activation was inactive: -13.2%.

As for `COc1ccc(CCNC(=O)c2c[nH]n3c(=O)c(Cc4ccccc4Cl)c(C)nc23)cc1OC`, the activation was inactive: 22%.

As to `O=C(Nc1cc(-c2nc3cc(Cl)ccc3o2)ccc1Cl)c1cccc2ccccc12`, the activation is inactive: -1.25%.

As for `COc1ccccc1Nc1c2c(nc3ccc(NC(=O)/C=C/c4cc(OC)c(OC)c(OC)c4)cc13)CCCC2`, the activation was inactive: 33%.

As for `CCCCCc1ccc(-c2ccc(C(=O)Oc3ccc(C(=O)OC)cc3)cc2)nc1`, the activation is inactive: 21.8%.

As to `CC(C)c1ccc(NC(=O)C2Cc3ccccc3N2C(=O)c2ccccc2)cc1` (centres undefined), the activation is inactive: -20%.

As for `COc1ccc(CNc2nc(-c3ccc(Cl)cc3)nn2C(=O)c2ccccc2)cc1`, the activation is inactive: 5.45%.

`COc1ccccc1CNC(=O)c1ccc(CSc2nc3ccncc3n2Cc2ccccc2C)cc1`: the activation was inactive: -6.35%.

On to `Cc1ccc(S(=O)(=O)C2(C(=O)Nc3ccc(C(C)C)cc3)CC2)cc1`, for which the activation is inactive: -18.6%.

Regarding `Cc1ccc(-n2ncc(C(=O)N3CCN(c4ncccn4)CC3)c2C2CCN(C(=O)OC(C)(C)C)CC2)cc1`, the activation was inactive: 2.45%.

Take `Cc1cc(C)cc(N2C(=O)CS(=O)(=O)C23C(=O)N(C)c2ccccc23)c1` (centres undefined): the activation was inactive: 17.5%.

As to `CCN(CC)C(=O)CSc1cn(CC(=O)N2CCCCCC2)c2ccccc12`, the activation was inactive: -8.97%.

For `Cc1ccc(NC(=O)C2CCN(c3nc4ccccc4nc3C(F)(F)F)CC2)cc1C`, the activation is inactive: 0%.

`CCn1c2ccccc2c2nnc(N3CCN(c4ccc(OC)cc4)CC3)nc21`: the activation was inactive: -13.1%.

As to `COc1ccc(-c2cc(C(F)(F)F)nc(SCCC(=O)Nc3ccc(O)cc3)n2)cc1`, the activation was active: 86.2%.

For the molecule `CCOC(=O)Cn1nc(C)c(NC(=O)COc2ccc(C)c(C)c2)c1C`, the activation was inactive: 29.5%.

For `CCCN(CCC)S(=O)(=O)c1ccc(N2CCCCS2(=O)=O)cc1`, the activation was inactive: -27%.

With `CCOc1ccc(-n2cc(-c3ccccc3)c3c(NCc4ccc(F)cc4)ncnc32)cc1`, the activation is inactive: -30.7%.

On to `CCSc1nc2c([nH]c3ccccc32)c(=O)n1-c1cccc(OC)c1`, for which the activation is inactive: 26.9%.

On to `CCOc1ccc(-n2nc3ccc(NC(=O)c4cccc(F)c4)cc3n2)cc1`, for which the activation was inactive: -6.09%.

As for `COc1ccc(Cl)cc1S(=O)(=O)N1CCN(CC(=O)Nc2ccccc2C(F)(F)F)CC1`, the activation was inactive: -6.78%.

Take `COc1cccc(NC(=O)Cn2c(=O)ccc3cc(S(=O)(=O)N4CCC(C)CC4)ccc32)c1`: the activation is inactive: 0.145%.

As to `CCOc1ccc(-c2nnc(SCC(=O)NC(C)CC)nc2-c2ccc(OCC)c(OC)c2)cc1OC` (centres undefined), the activation was inactive: -12.5%.

As to `COc1ccc(-c2nc3ccccc3o2)cc1NC(=O)c1ccc(-c2ccc(Br)cc2)o1`, the activation is inactive: -6.99%.

On to `Cc1nn(C)c(C)c1CCNC(=O)Nc1cccc(Cl)c1C`, for which the activation was inactive: 24%.

For `COc1ccc(Cn2cc(C(=O)c3ccc(F)cc3)c(=O)c3cc4c(cc32)OCCO4)cc1`, the activation is inactive: 27.3%.

In the case of `COc1cc(C(=O)Nc2cccc(OCc3cc(=O)n4cc(C)sc4n3)c2)cc(OC)c1OC`, the activation was inactive: 3.5%.

In the case of `CC(=O)Nc1nonc1-c1nnc(SCC(=O)Nc2cccc(C)c2C)n1-c1ccccc1`, the activation is inactive: -12.4%.

As to `CCCCc1nn2c(=O)cc(COC(=O)c3ccco3)nc2s1`, the activation is inactive: -15.2%.

On to `CCCCNc1ccc(-c2nc(-c3ccncc3)no2)cc1[N+](=O)[O-]`, for which the activation is inactive: 9.46%.

`CC1CCN(C(=O)Cn2cc(SCC(=O)Nc3ccccc3C(F)(F)F)c3ccccc32)CC1`: the activation is inactive: -14%.

On to `Cc1cccc(NC(=O)C2CCCN(S(=O)(=O)c3c(C)n[nH]c3C)C2)c1` (centres undefined), for which the activation is inactive: 13.4%.

`CCC(C(=O)Nc1ccccc1)n1nc(-c2cc(C)ccc2C)ccc1=O` (centres undefined): the activation is inactive: -16.4%.

With `CCOc1ccc(-n2c(=O)c3c(C)c(C)sc3n(CC(=O)Nc3ccc(CC)cc3)c2=O)cc1`, the activation is inactive: -5.61%.

As for `Cc1ccccc1Nc1c(-c2cccnc2)nc2cccc(C)n12`, the activation is inactive: 0.297%.

For `Cc1ccc(CN2C(=O)C(=O)c3cc(Br)cc(C)c32)cc1`, the activation was inactive: -52.6%.

In the case of `CCN1C(=O)N(c2ccc(C(C)=O)cc2)S(=O)(=O)c2ccccc21`, the activation was inactive: -4.11%.
